Results taken from PubChem BioAssay AID624296 (National Center for Advancing Translational Sciences (NCATS), 2012).
About 9,900 (2.8%) of roughly 350,000 compounds were called active. The shares of active, inactive and inconclusive entries below differ from those in the screen. Calls come from the whole dose curve; as a rule, active = well fitted activation curve with a large enough effect; inconclusive = small, poorly fitted or top-dose-only effect; inactive = no such curve, though single readings can be large or run the other way. Potencies of inconclusive entries are left out as doubtful fits.

Test: A quantitative high throughput screen for small molecules that induce DNA re-replication in MCF 10a normal breast cells. For activity, positive = re-replication: % of control where 0% means no effect. Note: nearly all actives have a fitted effect of over 50% in size.
Details: MCF 10A DNA re-replication, Hoechst nuclear intensity, 48 h; activity, positive = re-replication: at 46.1 µM (top of the series)
Potency is the fitted concentration of half-maximal effect; tags give direction and shape of the fitted curve.

Row | Compound | Potency | activity, positive = re-replication
1 | Cc1cc(=O)n(CCc2ccccc2)c(O)c1C#N | inconclusive [activator, partial curve, poor fit] | –
2 | Cc1cc(C)n(-c2nc(NCCN(C)C)c3c4c(sc3n2)COC(C)(C)C4)n1 | inconclusive [activator, single point] | –
3 | CCOc1ccc(-n2cc(C(=O)NCc3ccco3)c3cc(OC)c(OC)cc3c2=O)cc1 | inconclusive [activator, single point] | –
4 | CSc1cc(-c2ccccc2)n(C)c(=O)c1C#N | inconclusive [activator, single point] | –
5 | Cc1ccc(-n2c(SCC(=O)NCc3ccco3)nnc2-c2cccnc2)c(C)c1 | – | inactive: 7.56%
6 | CN1/C(=N\O)c2cccc3cccc1c23 | active: 18.4 µM | –
7 | Cc1ccc(SC[C@H](Cc2ccccc2)N2CC[C@@H](C)CCC2=O)cc1 | inconclusive [activator, single point] | –
8 | Cc1cc(C)cc(SCc2noc(C(=O)NCc3ccccc3)c2C(=O)NCc2ccccc2)c1 | active: 4.61 µM | –
9 | COc1ccc(CC(=O)Nc2ccc(-c3cn4ccc(C)cc4n3)cc2)cc1 | inconclusive [activator, single point] | –
10 | C=CCn1c(SCC(=O)Nc2ccccc2C)nc2sc(C)c(C)c2c1=O | inconclusive [activator, single point] | –
11 | O=C(N/N=C/c1ccc(Cl)c([N+](=O)[O-])c1)c1ccc2nc[nH]c2c1 | – | inactive: 29.4%
12 | Cc1cc(C)cc(OCC(=O)Nc2ccc(CN3CCCCC3)cc2)c1 | inconclusive [activator, partial curve, poor fit] | –
13 | N/C(CN1CCSCC1)=N\OCc1c(F)cccc1Cl | inconclusive [activator, single point] | –
14 | NC1=CC(=O)C(=O)c2ccccc21 | inconclusive [activator, single point] | –
15 | N/C(=N\c1nc2ccccc2o1)NC(=O)c1ccccc1 | inconclusive [activator, single point] | –
16 | Cc1nn(CC(C)C)c(Cl)c1C(=O)N(c1ccc(Cl)cc1F)S(C)(=O)=O | active: 20.6 µM | –
17 | Cc1cccc(C(=O)N/C(=C/c2ccco2)C(=O)N2CCCCCC2)c1 | inconclusive [activator, single point] | –
18 | CCOC(=O)CC1C(=O)NCCN1c1nc2c(C)cccn2c(=O)c1/C=C1\SC(=S)N(C(C)CC)C1=O (stereo unspecified) | inconclusive [activator, single point] | –
19 | CCSc1c([N+](=O)[O-])c(=O)n(-c2ccccc2)c2ccccc12 | inconclusive [activator, single point] | –
20 | N#CCCn1cc(C(=O)Nc2cccc(C(=O)O)c2)c(-c2ccc(Cl)cc2)n1 | – | inactive: 4.15%
21 | COc1ccc(Cl)cc1N(CC(=O)NC1CC2CCC1C2)S(=O)(=O)c1ccccc1 (stereo unspecified) | inconclusive [activator, single point] | –
22 | Cn1c(SCC(=O)NCC2CCCO2)ncc(C(=O)Nc2ccc(Cl)cc2)c1=O (stereo unspecified) | active: 18.4 µM | –
23 | Cc1ccc(NC2=C(Cl)C(=O)OC2OC(=O)c2ccco2)c(C)c1 (stereo unspecified) | inconclusive [activator, single point] | –
24 | Oc1ccccc1-n1c(-c2ccccc2)ccc1-c1ccccc1 | active: 20.6 µM | –

Row | Compound | Potency | activity, positive = re-replication
25 | CCOC(=O)Cn1nnnc1C(C(C)C)N(Cc1cc2c(C)cc(C)cc2[nH]c1=O)C1CCCC1 (stereo unspecified) | inconclusive [activator, single point] | –
26 | O=[N+]([O-])c1ccc(N2CCN(c3cccc(Cl)c3)CC2)cn1 | – | inactive: -4.17%
27 | COc1ccc(-n2nc(C(=O)Nc3ccc4c(c3)OCO4)c3c4ccccc4n(C)c3c2=O)cc1 | – | inactive: 2.28%
28 | CCOC(=O)c1cnc2ccc(OCC)cc2c1N(C)Cc1ccccc1 | inconclusive [activator, single point] | –
29 | N=C(N)Cc1ccccc1Sc1ccccc1 | – | inactive: 4.65%
30 | COc1cccc(C2=NNC(=NCc3ccccc3)SC2)c1 | – | inactive: 21.3%
31 | COc1ccc(Cl)cc1C(=O)NNC(=O)c1ccncc1 | – | inactive: -12%
32 | COc1ccc(CN2CCNC(=O)C2CC(=O)NCCSc2nccn2C)cc1OC (stereo unspecified) | – | inactive: 13.6%
33 | O=C(COc1ccc(C(=S)N2CCC(Cc3ccccc3)CC2)cc1)N1CCOCC1 | – | inactive: -11.4%
34 | O=C(NCCc1c[nH]c2ccccc12)C1CCC(=O)N(CCc2cccc(F)c2)C1 (stereo unspecified) | – | inactive: -1.34%
35 | O=C(CN1C(=O)CSc2ncccc21)Nc1cccc(Cl)c1 | inconclusive [activator, single point] | –
36 | Cc1nc(NCc2cccnc2)c2c3c(sc2n1)CCCC3 | – | inactive: 9.55%
37 | CCN1C(=O)/C(=C\N2CCN(C(=O)c3ccco3)CC2)SC1=S | inconclusive [activator, full curve, poor fit] | –
38 | CN(C)S(=O)(=O)c1ccc(N2CCCC2)c(C(=O)Nc2nc(-c3ccc(F)cc3)cs2)c1 | inconclusive [activator, single point] | –
39 | N#CCCN/N=C(\Cc1nc2ccccc2[nH]1)c1ccccc1 | – | inactive: 2.03%
40 | Oc1c(CN2CCN(c3ccccn3)CC2)cc(Cl)c2cccnc12 | inconclusive [activator, single point] | –
41 | COc1cc(OC)c2nc(C)c3c(c2c1)N(c1ccc(O)cc1)CC3 | inconclusive [activator, single point] | –
42 | CN(CC(=O)Nc1ccccc1-c1ccccc1)Cc1ccccc1Cl | inconclusive [activator, single point] | –
43 | CCN(CC(=O)Nc1ccc(OC)cc1)C(=O)c1cc(-c2cccs2)nn1-c1ccccc1 | inconclusive [activator, single point] | –
44 | O=C(CSc1ccc2nnc(-c3ccccn3)n2n1)Nc1ccccc1C(F)(F)F | inconclusive [activator, partial curve, poor fit] | –
45 | Cc1ccccc1OCCC(=O)Nc1ccccc1C(=O)N1CCCCC1 | – | inactive: 6.27%
46 | COc1ccc(Br)cc1CNc1ccc(N2CCOCC2)cc1 | – | inactive: 7%
47 | O=C(NC1CCN(Cc2ccccc2)CC1)c1ccccc1Cl | – | inactive: -1.02%
48 | C=CC(=O)Nc1ccc(Nc2nc(NC3CCC(N(C)C)CC3)nc3c2ncn3C(C)C)cc1 (stereo unspecified) | inconclusive [activator, partial curve, poor fit] | –

Row | Compound | Potency | activity, positive = re-replication
49 | CCCCCCCCCNC(=O)[C@H](NC(=O)COc1ccccc1)[C@@H]1NC(C(=O)OC)C(C)(C)S1 (stereo partly specified) | active: 6.51 µM | –
50 | CCOC(=O)c1sc(NC(=S)NC(=O)c2ccccc2)c(C(=O)OCC)c1C | inconclusive [activator, single point] | –
51 | COc1ccccc1CNC(=O)COc1ccc(Br)c(C)c1 | inconclusive [activator, full curve, poor fit] | –
52 | Cc1sc2nc(CSc3ccccc3)nc(N3CCOCC3)c2c1C | inconclusive [activator, single point] | –
53 | CCOc1cc(/C=N/NC(=O)Cn2nc([N+](=O)[O-])cc2C)cc(Br)c1OCc1ccccc1C | inconclusive [activator, partial curve] | –
54 | COCCn1c(SCC(=O)c2cc(C)n(C)c2C)nc2ccccc2c1=O | – | inactive: -5.7%
55 | O=c1c2ccccc2nc(SCc2ccc(F)cc2Cl)n1CCCN1CCOCC1 | inconclusive [activator, single point] | –
56 | CN(O)/C=c1/ccc2c(n1)C(=O)C=CC=2 | inconclusive [activator, single point] | –
57 | CN(CC(=O)Nc1ccc(Cl)cc1)CC(=O)Nc1cc(Cl)ccc1C#N | inconclusive [activator, full curve, poor fit] | –
58 | COc1ccc(/C=C2/SC(=S)N(CC(=O)O)C2=O)cc1OCc1ccc(Cl)cc1 | inconclusive [activator, single point] | –
59 | CCOc1ccc(NC(=O)c2ccccc2NS(C)(=O)=O)cc1 | inconclusive [activator, partial curve, poor fit] | –
60 | COCCC(=O)N1CCC(Oc2ccc(C(=O)NCCn3cccn3)cc2)CC1 | – | inactive: 12.5%
61 | Cn1c(COc2ccccc2O)[n+](C)c2ccccc21 | – | inactive: -1.52%
62 | Cc1nnc(Nc2ccc(Cl)c(C(F)(F)F)c2)[nH]c1=O | inconclusive [activator, single point] | –
63 | CC(CNC(=O)c1cc(COc2ccc3ncccc3c2)on1)c1ccccc1 (stereo unspecified) | inconclusive [activator, partial curve] | –
64 | CCCc1ccc2oc(C(=O)NCCN3CCCC(O)C3)c(C)c2c1 (stereo unspecified) | inconclusive [activator, single point] | –
65 | CN(C/C(O)=C(\C#N)c1ccccc1)C1CCCCC1 | – | inactive: 17.2%
66 | O=C(NCCc1c[nH]c2ccccc12)C(=O)NCC1OCCN1S(=O)(=O)c1ccccc1 (stereo unspecified) | – | inactive: -15.7%
67 | O=C(N/N=C(\CC(=O)c1cccs1)C(F)(F)F)c1ccncc1 | inconclusive [activator, single point] | –
68 | CC(C)c1nc(N2CCN(C(=O)c3ccccc3)CC2)c(C#N)c2c1COC(C)(C)C2 | inconclusive [activator, single point] | –
69 | Cc1nc(Sc2ccccc2)c(C#N)c(C)c1[N+](=O)[O-] | inconclusive [activator, single point] | –
70 | Cc1ccc(NNC(=O)c2ccno2)c(C)c1 | inconclusive [activator, partial curve, poor fit] | –
71 | O=c1cc(O)nc(SCc2ccccc2Cl)[nH]1 | inconclusive [activator, single point] | –
